# Data from PubChem BioAssay AID504339 (National Center for Advancing Translational Sciences (NCATS), 2011).
# In all, about 390,000 compounds went through this assay and about 17,000 (4.4%) were called active. Inconclusive results, whose numbers are uncertain, are shown with a selection of clear calls. Calls come from the whole dose curve; as a rule, active = well fitted inhibition curve with a large enough effect; inconclusive = small, poorly fitted or top-dose-only effect; inactive = no such curve, though single readings can be large or run the other way. A potency beside an inconclusive call is a rough fit, not a confirmed value.
# Target: Lysine-specific demethylase 4A (Homo sapiens) (UniProt O75164)
# Chain of UniProt O75164 (O75164 whole entry, looked up, the tested form may be a part): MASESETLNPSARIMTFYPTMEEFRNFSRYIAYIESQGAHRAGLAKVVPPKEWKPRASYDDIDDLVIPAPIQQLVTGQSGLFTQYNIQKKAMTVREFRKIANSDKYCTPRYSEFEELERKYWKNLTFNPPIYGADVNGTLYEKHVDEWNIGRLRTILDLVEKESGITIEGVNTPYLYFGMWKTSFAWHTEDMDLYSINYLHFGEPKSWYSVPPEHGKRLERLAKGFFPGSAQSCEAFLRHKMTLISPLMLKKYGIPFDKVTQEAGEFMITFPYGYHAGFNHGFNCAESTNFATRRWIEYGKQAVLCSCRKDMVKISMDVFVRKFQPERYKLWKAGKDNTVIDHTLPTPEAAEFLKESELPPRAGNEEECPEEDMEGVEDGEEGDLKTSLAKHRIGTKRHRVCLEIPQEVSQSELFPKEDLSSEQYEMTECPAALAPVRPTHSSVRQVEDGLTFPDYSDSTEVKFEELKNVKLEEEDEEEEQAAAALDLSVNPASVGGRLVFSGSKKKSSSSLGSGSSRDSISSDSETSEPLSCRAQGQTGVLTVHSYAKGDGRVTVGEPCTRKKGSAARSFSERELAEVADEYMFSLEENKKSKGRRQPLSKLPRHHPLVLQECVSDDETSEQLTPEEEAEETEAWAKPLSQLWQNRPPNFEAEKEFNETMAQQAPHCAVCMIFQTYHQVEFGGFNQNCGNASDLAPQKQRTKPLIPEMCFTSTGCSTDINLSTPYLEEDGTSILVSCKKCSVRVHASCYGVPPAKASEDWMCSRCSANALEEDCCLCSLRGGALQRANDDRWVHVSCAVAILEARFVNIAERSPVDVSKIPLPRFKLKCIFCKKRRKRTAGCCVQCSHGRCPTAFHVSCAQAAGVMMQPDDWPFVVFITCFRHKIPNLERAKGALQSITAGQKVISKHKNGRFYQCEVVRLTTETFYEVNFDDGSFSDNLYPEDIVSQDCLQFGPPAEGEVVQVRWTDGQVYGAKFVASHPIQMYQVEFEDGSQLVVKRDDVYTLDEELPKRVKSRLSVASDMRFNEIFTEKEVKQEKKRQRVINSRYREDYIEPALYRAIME
# Assay: qHTS Assay for Inhibitors of JMJD2A-Tudor Domain; note: nearly all actives have a fitted effect of over 50% in size
# Conditions: AlphaScreen JMJD2A-Tudor / H3K4me3 peptide binding; activity change, negative = inhibition: at 114 µM (top of the series)
# % is set by controls: 0 for no effect and ±100 for the full control effect; potency is the fitted concentration of half-maximal effect; tags give direction and shape of the fitted curve.
Structure (SMILES),"activity change, negative = inhibition",Potency
COc1ccc(NC(=O)CSc2nnc(Cn3c(=O)sc4ccccc43)n2C)cc1,inactive: -4.29%,–
O=S(=O)(c1ccccc1)c1nc(-c2ccc(F)cc2)oc1N1CCCCCC1,inactive: -21.6%,–
CC(C)NC(=O)c1ccccc1NC(=O)C1COc2ccccc2O1 (configuration not stated),–,active: 50.1 µM
c1ccc(CNC2=NCCC2)nc1,–,"inconclusive: 1.78 µM [inhibitor, full curve, poor fit]"
Cc1ccc(NC(=O)NCc2ccc3[nH]c(C)cc3c2)cc1,–,"inconclusive: 56.2 µM [inhibitor, partial curve]"
COc1ccc(-c2nc(CS(=O)CC(=O)NCCc3ccc(OC)c(OC)c3)c(C)o2)cc1 (configuration not stated),inactive: -16.8%,–
O=S(=O)(Nc1cccc(S(=O)(=O)N2CCCCCC2)c1)c1ccc(F)cc1F,–,"inconclusive: 31.6 µM [inhibitor, full curve]"
COc1ccc(N(CC(=O)NCCc2ccc(OC)c(OC)c2)S(=O)(=O)c2c(C)noc2C)cc1,inactive: -10.5%,–
CCCNC(=O)CN1CCN(c2ncc(NC(=O)c3ccc(Cl)cc3)cc2C(=O)O)CC1,–,active: 70.8 µM
Cc1c(CC(=O)N[C@H](C(=O)O)C(C)C)c(=O)oc2cc3c(cc12)CCC(C)(C)O3,–,"inconclusive: 31.6 µM [inhibitor, partial curve]"
O=C1N=C(N2C=CC(=C3C=CNC=C3)C=C2)/C(=C/N=NC(=O)c2ccccc2O)S1,–,"inconclusive: 56.2 µM [inhibitor, partial curve]"
CCCOc1ccccc1C1Oc2nc(SC)nnc2-c2ccccc2N1C(C)=O (configuration not stated),inactive: -25.6%,–
COc1ccc(CCc2ccnc3ccccc23)cc1,inactive: 30.1%,–
Cc1ccc(-c2nnnn2-c2ccc(C)cc2)cc1,–,"inconclusive: 14.1 µM [inhibitor, full curve]"
CC1=CC(C)(C)Nc2ccc(OC(=O)CN3C(=O)c4ccccc4C3=O)cc21,–,"inconclusive: 50.1 µM [inhibitor, single point]"
CSc1ccc(-c2nc(CN3CCCCC3c3cccnc3)c(C)o2)cc1 (configuration not stated),–,"inconclusive: 70.8 µM [inhibitor, partial curve, poor fit]"
Cc1cc(NS(=O)(=O)c2ccc(NC(NC(=O)C(C(F)(F)F)C(F)(F)F)(C(F)(F)F)C(F)(F)F)cc2)no1,–,"inconclusive: 79.4 µM [inhibitor, partial curve]"
Cc1ccc(Cl)cc1NC(=O)C1CCCN(S(C)(=O)=O)C1 (configuration not stated),inactive: -7.97%,–
CCC(=O)NC(c1ccc([N+](=O)[O-])cc1)c1c(O)ccc2ccccc12 (configuration not stated),–,"inconclusive: 56.2 µM [inhibitor, partial curve, poor fit]"
O=C(O)C1CC=CC2CCN(C3CC3)C(=O)C21 (configuration not stated),inactive: -21.4%,–
CCOc1ccc(CNc2ccc(CNc3ncn[nH]3)cc2)cc1,inactive: -33.9%,–
CCCCc1nnc(NC(=O)CN2C(=O)c3ccccc3C2=O)s1,inactive: -0.645%,–
NS(=O)(=O)c1cccc(C(=O)NC2CCSc3ccccc32)c1 (configuration not stated),inactive: -5.65%,–
COc1ccc(/C=C2/SC(=S)N(Cc3ccccc3)C2=O)cc1O,–,"inconclusive: 10 µM [inhibitor, partial curve]"

Structure (SMILES),"activity change, negative = inhibition",Potency
NC(=O)c1oc2ccccc2c1NC(=O)c1nc2ccccc2s1,–,"inconclusive: 25.1 µM [inhibitor, full curve, poor fit]"
CCc1ccc(-n2c(CCC(=O)O)ccc2-c2ccc(F)cc2)cc1,–,"inconclusive: 31.6 µM [inhibitor, full curve]"
CC1(OC(=O)C2CCCC2)C(=O)C=C2C=C(c3ccsc3)N(C3CCCCC3)C=C2C1=O (configuration not stated),–,"inconclusive: 63.1 µM [inhibitor, partial curve, poor fit]"
CN(C(=O)c1ccc2c(c1)OCO2)C1(C(=O)NC2CCCCC2)CCCCC1,inactive: 6.62%,–
CCCCn1c(SCC(=O)NCc2ccco2)nc2cc(S(N)(=O)=O)ccc21,–,"inconclusive: 3.16 µM [inhibitor, full curve, poor fit]"
CCN1C(=O)[C@H]2[C@H]3CN=C(SCc4ccc(OC)cc4)N3[C@@](CC)(C(=O)OC)[C@H]2C1=O,–,"inconclusive: 89.1 µM [inhibitor, partial curve]"
O=S(=O)(c1cc(O)ccc1O)c1cccc2c(S(=O)(=O)c3cc(O)ccc3O)cccc12,–,active: 17.8 µM
COc1ccc(CCN(C)CCCN2CC(c3ccccc3)CC2=O)cc1OC (configuration not stated),–,active: 25.1 µM
Cc1ccccc1NCc1nnc2n1CCCCC2,inactive: -19.3%,–
CCOC(=O)c1c(CSc2ccc(CC)cc2)oc2ccc(O)c(CN(C)C)c12,–,"inconclusive: 50.1 µM [inhibitor, single point]"
COC(=O)C1=Cc2cc(OC)cc([N+](=O)[O-])c2OC1N1CCOCC1 (configuration not stated),inactive: -3.4%,–
CN(CCO)c1ccc(/C=N/Nc2nncc3ccccc23)cc1,–,"inconclusive: 70.8 µM [inhibitor, partial curve]"
COc1ccc2noc3c2c1C(=O)c1ccccc1-3,–,"inconclusive: 39.8 µM [inhibitor, partial curve]"
COc1ccc2c(c1)[C@H]1[C@H](CO2)[C@H](c2ccccc2)[C@]2(C)C(=O)Nc3ccc(C)cc3C(=O)N12,–,"inconclusive: 11.2 µM [inhibitor, full curve, poor fit]"
COc1cc(OC)nc(N/N=C(\c2ccccc2)c2ccncc2)n1,–,"inconclusive: 22.4 µM [inhibitor, full curve]"
O=C(CCCCCn1c(=O)[nH]c2ccccc2c1=O)N1CCN(c2ccc(Cl)cc2)CC1,–,"inconclusive: 79.4 µM [inhibitor, partial curve]"
O=S(=O)(c1ccc(F)cc1)N1CCC(N2CCCCCC2)CC1,–,"inconclusive: 0.708 µM [inhibitor, full curve, poor fit]"
CCOC(=O)CCC(=O)NNC(=O)COc1ccc(C(C)C)cc1Br,inactive: -11.6%,–
COc1ccc(/C=N/Nc2nc(Nc3ccccc3)nc(N3CCCCC3)n2)c(OC)c1,–,"inconclusive: 39.8 µM [inhibitor, single point]"
Cc1ccccc1-n1c(SCc2csc(Nc3ccccc3)n2)nnc1-c1cccnc1,–,"inconclusive: 17.8 µM [inhibitor, full curve]"
O=C(CSc1ncn[nH]1)N1N=C2/C(=C/c3ccccc3)CCCC2C1c1ccccc1 (configuration not stated),–,"inconclusive: 44.7 µM [inhibitor, partial curve]"
O=C(N/N=C/c1ccccn1)c1cc(C2CC2)[nH]n1,–,active: 56.2 µM
CCN1CCN(C(=O)c2ccc3c(c2)N(Cc2c(F)cccc2Cl)C(=O)c2ccccc2S3)CC1,–,"inconclusive: 56.2 µM [inhibitor, partial curve, poor fit]"
CCOC(=O)c1cc2c(=O)n3ccccc3nc2n(C(C)C)c1=NC(=O)c1ccncc1,–,"inconclusive: 39.8 µM [inhibitor, single point]"

Structure (SMILES),"activity change, negative = inhibition",Potency
COc1ccc2[nH]c(C(=O)N3CCCN(Cc4ccc(F)cc4)CC3)cc2c1,–,"inconclusive: 56.2 µM [inhibitor, partial curve]"
CCOC(=O)c1ccccc1NC(=O)c1ccc2c(SCC(=O)O)c3c(nc2c1)CCCC3,inactive: -29.9%,–
O=C(NCc1ccccc1)C1CCCN(C(=O)NCc2ccccc2)C1 (configuration not stated),inactive: -19.9%,–
CCc1ccccc1S(=O)(=O)Cc1ccc(C(=O)NC(C)C)o1,inactive: -12%,–
Cc1ccc(NCC(=O)N=Nc2c(O)[nH]c3ccc([N+](=O)[O-])cc23)cc1,inactive: -25.1%,–
Cc1cc2oc(C(=O)NCCc3ccc(S(N)(=O)=O)cc3)cc(=O)c2cc1C,–,"inconclusive: 20 µM [inhibitor, partial curve]"
COc1cc2[nH]c(=S)n(NC(=O)CC(C)C)c(=O)c2cc1OC,–,active: 3.55 µM
O=c1c(Cl)nc2cc(Cl)ccc2n1CCNc1ncc(C(F)(F)F)cc1Cl,–,"inconclusive: 25.1 µM [inhibitor, full curve]"
CC(=O)Nc1ccc(NC(=O)CSc2cn(CC(=O)N(C(C)C)C(C)C)c3ccccc23)cc1,inactive: -16.5%,–
C=CCc1ccccc1OCC(O)CNC1CCCC1 (configuration not stated),inactive: 14%,–
O=C(Nc1ccc(O)cc1C(=O)O)c1ccc2c(c1)C(=O)N(Cc1ccco1)C2=O,–,"inconclusive: 50.1 µM [inhibitor, partial curve]"
CC(=O)Nc1ccc(Nc2nc(-c3sc(NC(C)=O)nc3C)cs2)cc1,–,"inconclusive: 25.1 µM [inhibitor, full curve, poor fit]"
COc1cccc(NC(=O)Cn2c3ccccc3c3nc4n(c(=O)c32)CCCS4)c1,inactive: -14%,–
CCn1c(C)c(/C=N/Nc2nc3ccccc3s2)c2ccccc21,–,active: 31.6 µM
O=C(CC1N=C2c3ccccc3N=C(SCc3ccc(F)cc3)N2C1=O)NCc1ccco1 (configuration not stated),–,"inconclusive: 79.4 µM [inhibitor, partial curve]"
O=[N+]([O-])c1cccc(OCC(O)CN2CCN(S(=O)(=O)c3cc(Cl)ccc3Cl)CC2)c1 (configuration not stated),–,"inconclusive: 79.4 µM [inhibitor, partial curve]"
CCc1ccc(N2CC(C(=O)N/N=C/c3ccccc3OC)CC2=O)cc1 (configuration not stated),–,"inconclusive: 44.7 µM [inhibitor, partial curve]"
CN1C(=O)N(C)c2ccc(Br)c3cccc1c23,–,active: 44.7 µM
COc1ccc(CNc2nc(-c3ccco3)nn2S(=O)(=O)c2ccc3ccccc3c2)cc1OC,inactive: -27.2%,–
Cc1cc(C)n2nc(NCc3ccccc3Cl)nc2n1,inactive: -19.4%,–
Cc1nnc(C)c2c(C)n(Cc3ccc4c(c3)OCO4)c(C)c12,–,"inconclusive: 50.1 µM [inhibitor, partial curve]"
COc1ccc(-c2cc(C(=O)OCC(=O)N3CCCCC3)c3ccccc3n2)cc1OC,inactive: 20.8%,–
c1ccc(CSc2nnc(Cc3ccccc3)o2)cc1,–,active: 79.4 µM
Nc1nc(SCC(=O)N2CCN(c3ccccc3)CC2)n[nH]1,inactive: -1.42%,–
